Values joined by “and” are separate entries in the source; they are usually repeats but may differ in a detail not shown here. Identical values can stand only once. Hit rate of the full screen: of about 420,000 compounds, about 64,000 (15%) were called active. The shares of active, inactive and inconclusive entries below differ from those in the screen. Calls come from the whole dose curve; as a rule, active = well fitted inhibition curve with a large enough effect; inconclusive = small, poorly fitted or top-dose-only effect; inactive = flat fitted curve, though single readings scatter. Potencies of inconclusive entries are doubtful fits and often do not repeat.
Assay: qHTS for Inhibitors of human tyrosyl-DNA phosphodiesterase 1 (TDP1): qHTS in cells in absence of CPT; note: nearly all actives have a fitted effect of over 55% in size
Settings: DT40 Tdp1-/- hTDP1 cells, no CPT, ATP luminescence, 48 h; series mostly up to 46.2 µM
Method in brief: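 Camptothecin absent (DMSO only). Human TDP1-complemented DT40 knockout cells, 400 cells/well, 37 °C for minimum 48 hr; ATP measured via CellTiter-Glo, 30 min dark incubation, luminescence.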
Potency is the fitted concentration of half-maximal effect; tags give direction and shape of the fitted curve.

Compound | Potency
COc1ccc(C=C(C(=O)c2ccccc2)c2ccccc2)cc1 | inconclusive: 16.4 µM [inhibitor, single point]
CC(C)c1cccc(OCCCCN(C)C)c1 | inactive
COc1ccc(OC)c(NC(=O)CSc2c3c(nc4ccccc24)CCCC3)c1 | active: 7.31 µM
Nc1nncn1C(=O)CCCOc1ccc(Cl)cc1Cl | inactive
C[C@@H]1CCCCO[C@H](CN(C)S(=O)(=O)c2cn(C)cn2)[C@@H](C)CN([C@H](C)CO)C(=O)c2cc(NC(=O)c3ccncc3)ccc2O1 | inactive
Cc1cccc(N2CCN(C(=O)c3cc(S(=O)(=O)N(C)C)ccc3N3CCCC3)CC2)c1C | inconclusive: 23.1 µM [inhibitor, single point]
CCCC(=O)Nc1c(I)cc(I)c(CC(CC)C(=O)O)c1I (centres undefined) | inactive
CC1CCN(S(=O)(=O)c2ccc3c(c2)N(CC(=O)NC(C)C)C(=O)CS3)CC1 | inactive
O=C(NCc1ccccc1)C(c1ccc(F)cc1)N1CCN(CCN2CCOCC2)CC1 (centres undefined) | inactive
COc1ccc(C(=O)Nc2ccccc2C(=O)O)cc1Cl | inconclusive: 29.1 µM [inhibitor, single point]
Cc1cc(C)c2c(NC(=S)NC(=O)c3ccccc3)n[nH]c2n1 | inactive
COc1ccc(S(=O)(=O)Nc2cc3c4c(c2)CCN4C(=O)CC3)cc1OC | inactive
Cc1ccc(C(=O)CSc2nc(N)cc(=O)[nH]2)cc1C | inconclusive: 13 µM [inhibitor, single point]
O=C(Nc1ccc2nn(-c3ccccc3)nc2c1)c1cccnc1 | active: 16.4 µM
Cc1ccc(Cn2cccc2C2=NC(C)(C)CO2)cc1 | inactive
CN1CCN(c2ccc(CNC(=O)c3ccc(-c4ccc(F)c(F)c4)c4ccoc34)cc2)CC1 | active: 18.4 µM
CCS(=O)(=O)N1N=C(c2ccc(C)cc2)CC1c1cc2ccc(OC)cc2nc1Cl (centres undefined) | inconclusive: 29.1 µM [inhibitor, single point]
Cc1cccc(NC(=S)N(CCN2CCOCC2)Cc2cc3cc4c(cc3[nH]c2=O)OCO4)c1 | inconclusive: 11.6 µM [inhibitor, partial curve, poor fit]
Cc1csc2c(N3CCCCC3)ncnc12 | inactive
CCN(CC(=O)Nc1ccc(Br)cc1F)CC(=O)NC1CCS(=O)(=O)C1 (centres undefined) | inactive
Cc1ccc(C2C(C#N)=C(N)Oc3c2c(=O)n(C)c(=O)n3C)cc1 (centres undefined) | inactive
O=C(OCC(=O)c1ccc(Cl)s1)c1ccc(CO)cc1 | inactive
Cc1cccc(C(=O)NC(C(=O)Nc2ccc(S(=O)(=O)Nc3nccs3)cc2)C(C)C)c1 (centres undefined) | inactive
CCc1nc2c(OCCn3cccc3)cccn2c1N(C)C(=O)c1ccc(OC)cc1 | inactive
COc1cc2c(cc1OC)CC(=O)N(C)CC2 | inactive

Compound | Potency
CCO/N=C(/C)c1c(O)cc(-c2ccccc2)n(-c2ccccc2)c1=O | inactive
CCc1nn(CCCC(=O)NCc2ccccc2Br)c(=O)c2cc3occc3n12 | inconclusive: 9.2 µM [inhibitor, partial curve] and inconclusive: 29.1 µM [inhibitor, single point]
O=C(NCc1ccc(F)cc1)C(c1ccco1)N(C(=O)c1csnn1)c1ccccc1 (centres undefined) | inconclusive: 23.1 µM [inhibitor, single point]
O=C(COC(=O)CNS(=O)(=O)c1ccc(Br)cc1Cl)NC1CC1 | inactive
Cc1cccn2c(=O)c3cc(C(=O)NC(C)c4ccccc4)c(=N)n(CCCn4ccnc4)c3nc12 (centres undefined) | inconclusive: 10.3 µM [inhibitor, partial curve]
COc1cccc(CC2(CO)CCCN(Cc3cnn(-c4ccccc4)c3)C2)c1 (centres undefined) | active: 25.9 µM
COc1ccc(N(CC(=O)Nc2ccccc2OC)S(=O)(=O)c2ccc(NC(C)=O)cc2)cc1 | active: 5.17 µM
CCC(=O)c1ccc(OCC(=O)OC(C)C(=O)NCc2ccc3c(c2)OCO3)cc1 (centres undefined) | inactive
O=C1NC(=NCc2ccccc2)S/C1=C/c1ccc(O)cc1 | active: 11.6 µM
CCCCOc1ccc(-c2nonc2NC(=O)c2ccco2)cc1 | inconclusive: 23.1 µM [inhibitor, single point]
Cc1ccc(SCc2c(C(=O)N/N=C/c3ccoc3)nnn2-c2nonc2N)cc1 | inconclusive: 20.6 µM [inhibitor, single point]
CN(C)c1cccc(C(=O)N/N=C/c2ccccc2F)c1 | inconclusive: 1.03 µM [inhibitor, full curve]
O=C(CSc1cn(CCNC(=O)c2cccs2)c2ccccc12)NCc1ccccc1 | inconclusive: 18.4 µM [inhibitor, single point]
Cc1cc(C)cc(NC(=O)c2ccc(NC(=O)c3ccco3)cc2)c1 | inconclusive: 29.1 µM [inhibitor, single point]
Cc1cc(-c2ccco2)n2c(nc3ccccc32)c1C#N | inconclusive: 29.1 µM [inhibitor, single point]
CC(C)(C)c1ccc(C(=O)N2CCN(C(=O)c3cccs3)CC2)cc1 | inconclusive: 23.1 µM [inhibitor, single point]
COc1ccc(-n2nnnc2CNC(=O)c2c(-c3ccccc3Cl)noc2C)cc1 | inactive
CCOC(=O)N1CCN(c2cc(C)c([N+](=O)[O-])cc2F)CC1 | active: 16.4 µM
CCOc1ccc(CNS(=O)(=O)c2c(C)nc3sccn3c2=O)cc1OC | inactive
O=[N+]([O-])c1ccccc1Oc1ccc(S(=O)(=O)N2CCOCC2)cc1 | active: 20.6 µM
CCOC(=O)C1(CCc2ccccc2)CCN(Cc2nccn2CC)CC1 | active: 18.4 µM
NC(=O)CC(NC(=O)Cc1cccc2ccccc12)c1ccc(NCCc2ccc(F)cc2)c([N+](=O)[O-])c1 (centres undefined) | inconclusive: 29.1 µM [inhibitor, single point]
CSCC[C@H](NS(=O)(=O)c1ccc(C)cc1)C(=O)N1CCC(C(=O)N[C@@H](Cc2ccc(O)cc2)C(=O)O)CC1 | inactive
COc1ccc(Nc2nc(N)nc(CN3CCN(c4ccccn4)CC3)n2)cc1 | inconclusive: 29.1 µM [inhibitor, single point]
